Screen size: about 310,000 compounds; about 2,200 (0.71%) showed an effect of 50% or more. The effect is printed as a negative number. This is one part of the list.
target: human ether-à-go-go-related gene (hERG) potassium channel (human, UniProt Q12809); assay: primary screen, population patch clamp on CHO cells stably expressing hERG
Sequence (Q12809 whole entry, looked up): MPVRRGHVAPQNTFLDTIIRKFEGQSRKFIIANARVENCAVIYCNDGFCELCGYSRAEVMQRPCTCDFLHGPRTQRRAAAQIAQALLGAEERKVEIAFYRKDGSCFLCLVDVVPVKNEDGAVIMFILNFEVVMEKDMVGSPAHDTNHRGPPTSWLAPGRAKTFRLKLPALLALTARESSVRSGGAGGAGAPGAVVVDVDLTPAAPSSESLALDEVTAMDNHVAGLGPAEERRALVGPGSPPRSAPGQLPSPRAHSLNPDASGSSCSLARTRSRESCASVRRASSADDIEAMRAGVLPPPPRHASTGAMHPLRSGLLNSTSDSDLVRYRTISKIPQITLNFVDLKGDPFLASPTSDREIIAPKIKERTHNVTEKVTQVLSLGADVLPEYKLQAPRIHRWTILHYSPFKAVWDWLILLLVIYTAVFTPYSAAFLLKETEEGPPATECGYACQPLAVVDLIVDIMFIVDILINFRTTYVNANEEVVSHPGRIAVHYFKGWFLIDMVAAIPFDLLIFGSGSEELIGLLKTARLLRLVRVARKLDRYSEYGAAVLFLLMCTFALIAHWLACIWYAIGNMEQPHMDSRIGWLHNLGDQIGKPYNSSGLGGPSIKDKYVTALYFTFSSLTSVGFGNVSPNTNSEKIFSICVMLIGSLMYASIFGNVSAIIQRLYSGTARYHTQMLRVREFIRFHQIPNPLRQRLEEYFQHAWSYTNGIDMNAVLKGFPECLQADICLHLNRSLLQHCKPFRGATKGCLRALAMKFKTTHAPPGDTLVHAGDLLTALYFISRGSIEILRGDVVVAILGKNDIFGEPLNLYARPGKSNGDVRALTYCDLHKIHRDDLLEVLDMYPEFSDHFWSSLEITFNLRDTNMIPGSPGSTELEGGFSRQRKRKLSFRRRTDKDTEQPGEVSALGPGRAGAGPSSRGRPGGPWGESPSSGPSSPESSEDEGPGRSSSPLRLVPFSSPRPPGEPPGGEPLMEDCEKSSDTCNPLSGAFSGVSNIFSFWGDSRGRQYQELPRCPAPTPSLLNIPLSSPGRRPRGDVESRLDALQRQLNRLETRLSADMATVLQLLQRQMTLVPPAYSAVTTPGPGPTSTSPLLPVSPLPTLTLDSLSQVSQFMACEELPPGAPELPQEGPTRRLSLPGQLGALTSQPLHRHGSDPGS

Row | Compound | hERG current change (%, negative = inhibition) at 1uM
1 | CCOC(=O)C1=C(C)N=C2SC(C)C(=O)N2C1c1ccc(OC(C)=O)c(OCC)c1 (centres unmarked) | 5.77%
2 | COCCC1CCCCN1C(=O)c1cc(COc2ccc(C)nc2)on1 (centres unmarked) | -3.12%
3 | O=C(O)CCc1nn2c3ccccc3nc2n(Cc2ccccc2)c1=O | 18%
4 | O=C(CSc1nnnn1C1CCCCC1)Nc1ccc2c(c1)OCO2 | 16.9%
5 | CCOc1ccccc1C(=O)N(CCC(=O)OC)c1ccccn1 | 15.4%
6 | COc1ccc(C(=O)CCN2CCCCCC2)cc1.Cl | -4.54%
7 | COc1ccc(C(=O)CSc2nnnn2Cc2ccccc2)cc1 | 9.02%
8 | CSc1cccc(NC(=O)CCS(=O)(=O)c2cccc3nonc23)c1 | 2.83%
9 | CC(=O)NC(Cc1cccc(F)c1)C(=O)NC1CCN(c2nnnn2-c2ccccc2)CC1 (centres unmarked) | 10.3%
10 | O=C(NNC(=O)c1sc2cccc(Cl)c2c1Cl)NC1CCCCC1 | 8.81%
11 | O=C(NCCCc1ccccc1)C1CC(=O)N(c2ccc3c(c2)OCCO3)C1 (centres unmarked) | 4.59%
12 | CN1C(=S)SC(N(O)C(=O)Nc2ccc(Cl)c(Cl)c2)C1(C)C (centres unmarked) | 4.66%
13 | COc1ccccc1N1C(=O)Cc2ccccc2C1=O | 11.8%
14 | COC(=O)C1=C(c2ccc(-c3ccccc3)c(F)c2)C[C@@H]2CC[C@H]1N2C(=O)NCCOc1ccccc1Cl | 11.6%
15 | O=C1CCCN1CC(O)CS(=O)(=O)Cc1ccccc1 (centres unmarked) | 10.8%
16 | CC1(c2ccc(Cl)cc2)NC(=O)N(CN2CCOCC2)C1=O (centres unmarked) | 9.42%
17 | CC[C@@H](C)C(NC(=O)OC(C)(C)C)c1cn([C@@H](CCC(=O)OC(C)(C)C)C(=O)N2CCN(C(=O)OC(C)(C)C)CC2)nn1 (some centres unmarked) | 16.1%
18 | N#Cc1cccc(NC(=O)CSc2ccccc2)c1 | 7.92%
19 | Cc1cc2cc(C(c3nnnn3Cc3ccco3)N3CCCCC3)c(=O)[nH]c2cc1C (centres unmarked) | 6.29%
20 | COC(=O)C1(CC2CC(c3ccccc3)=NO2)CCN(C(=O)OC(C)(C)C)CC1 (centres unmarked) | 12.3%
21 | COc1cc(/C=C/C(=O)OCC(=O)Nc2ccccc2Sc2ccc(Cl)cc2)ccc1O | 2.82%
22 | CCC(C(=O)NCCc1c[nH]c2cc(OC)ccc12)c1ccccc1 (centres unmarked) | 12.6%

Row | Compound | hERG current change (%, negative = inhibition) at 1uM
23 | CCCNC(=O)Nc1ccc(C(F)(F)F)cc1 | 16%
24 | COc1ccc(-c2nnc(SCC(=O)Nc3cccnc3Cl)n2C)cc1 | -25.8%
25 | Cc1cc(C(=O)N/N=C/c2ccc(-c3ccc(C)c(Cl)c3)o2)n[nH]1 | 9.36%
26 | Cc1ccccc1CNC(=O)c1cc2ccccc2o1 | 13.9%
27 | O=C(CN1CCOCC1)Nc1nc(-c2ccc3c(c2)CCN3S(=O)(=O)c2ccccc2)cs1 | 17.9%
28 | COc1cccc(CNC(=O)C2CC(=O)N(c3ccc4c(c3)OCCO4)C2)c1 (centres unmarked) | 14.5%
29 | CC(Cc1ccccc1)NC(=O)Cc1ccc(N(C)C)cc1 (centres unmarked) | 5.4%
30 | O=C(COc1ccccc1)Nc1ccc(-c2ccc(N3CCOCC3)nn2)cc1 | -2.8%
31 | O=C1c2ccccc2C(=O)N1Cc1nc2ccccc2c(=O)n1Cc1ccco1 | 16.5%
32 | Cc1cc(C)n(-c2ccc(NC(=O)C3CCN(Cc4ccc(C)o4)CC3)cc2)n1 | 10%
33 | COC(=O)c1ccc(NC(=O)c2ccc3c(c2)C(=O)N(C)C3=O)cc1 | 13%
34 | O=C(C1=NN(c2ccccc2)C2C(=O)N(c3ccc(Cl)cc3)C(=O)C12)c1ccccc1 (centres unmarked) | 3.04%
35 | O=C(/C=C/c1ccccc1Cl)NCCc1ccc(F)cc1 | 4.26%
36 | Cc1cc(C)nc(SCC(=O)c2c(N)n(C)c(=O)n(C)c2=O)n1 | 17.1%
37 | COc1ccc(C2C(C(C)=O)=C(O)C(=O)N2c2ccccn2)cc1 (centres unmarked) | 10.2%
38 | O=C(CCCn1c(=S)[nH]c2cc3c(cc2c1=O)OCO3)N1CCN(C2CCCCC2)CC1 | -6.95%
39 | Cc1noc(/C=C/c2ccc(-c3ccccc3Cl)o2)c1[N+](=O)[O-] | 6.52%
40 | Cc1ccc(C23CC4CC(CC(C(=O)OCC(=O)NC5CCS(=O)(=O)C5)(C4)C2)C3)cc1 (centres unmarked) | 1.74%
41 | COc1cccc(Nc2cc(C)nc3nc(C)nn23)c1 | -3.83%
42 | CCOc1ccc(N2CC(C(=O)N3CCc4ccccc43)CC2=O)cc1 (centres unmarked) | -8.82%
43 | O=C(NCCc1nc(-c2ccccc2)no1)c1ccco1 | 11.3%
44 | CCOc1ccccc1N(CC(=O)N1CCOCC1)S(=O)(=O)c1ccccc1 | 2.31%

— paper PMC4336329 (PLoS ONE, 2015)
